# The supplement of paper PMC8728848
# Some of the results follow.
# Assays:
# Test in all cases: glycan array binding signal (z-score within array); higher = stronger binding
# Details in all cases: glycan notation: IUPAC condensed, linker removed
# [1] = molecular target: GlcNAc(a1-4)Gal(b1-4)GlcNAc(b1-3)Gal(b1-4)Glc
# In short: (§1)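 Columns mapping to the same glycan were averaged after glycan names were converted to IUPAC-condensed notation. The data come from 3228 arrays in the Consortium for Functional Glycomics database, limited to those with an available protein sequence. Binding is reported as a within-array Z-score averaged across arrays of one protein sequence and across linkers.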
# [2] = molecular target: GlcNAc(a1-4)Gal(b1-4)GlcNAc(b1-3)Gal(b1-4)GlcNAc
# In short: as §1
# [3] = molecular target: GlcNAc(a1-4)Gal(b1-4)GlcNAc(b1-3)Gal(b1-4)GlcNAc(b1-3)Gal(b1-4)GlcNAc
# In short: as §1
# [4] = molecular target: GlcNAc(a1-4)Gal(b1-4)GlcNAc(b1-3)Gal(b1-4)[Fuc(a1-3)]GlcNAc(b1-3)Gal(b1-4)[Fuc(a1-3)]GlcNAc
# In short: as §1
# [5] = molecular target: GlcNAc(a1-6)Gal(b1-4)GlcNAc
# In short: as §1
# [6] = molecular target: GlcNAc(b1-2)Gal(b1-3)GalNAc
# In short: as §1
# [7] = molecular target: GlcNAc(b1-2)Man(a1-3)[GlcNAc(b1-2)Man(a1-6)]Man(b1-4)GlcNAc(b1-4)GlcNAc
# In short: as §1
# [8] = molecular target: GlcNAc(b1-2)Man(a1-3)[GlcNAc(b1-2)Man(a1-6)]Man(b1-4)GlcNAc(b1-4)[Fuc(a1-6)]GlcNAc
# In short: as §1
# [9] = molecular target: GlcNAc(b1-2)Man(a1-3)[GlcNAc(b1-4)][GlcNAc(b1-2)Man(a1-6)]Man(b1-4)GlcNAc(b1-4)GlcNAc
# In short: as §1
# [10] = molecular target: GlcNAc(b1-2)[GlcNAc(b1-4)]Man(a1-3)[GlcNAc(b1-2)Man(a1-6)]Man(b1-4)GlcNAc(b1-4)GlcNAc
# In short: as §1
# [11] = molecular target: GlcNAc(b1-2)[GlcNAc(b1-4)]Man(a1-3)[GlcNAc(b1-4)][GlcNAc(b1-2)Man(a1-6)]Man(b1-4)GlcNAc(b1-4)GlcNAc
# In short: as §1
# [12] = molecular target: GlcNAc(b1-2)[GlcNAc(b1-4)]Man(a1-3)[GlcNAc(b1-4)][GlcNAc(b1-2)[GlcNAc(b1-6)]Man(a1-6)]Man(b1-4)GlcNAc(b1-4)GlcNAc
# In short: as §1
# [13] = molecular target: GlcNAc(b1-2)[GlcNAc(b1-4)]Man(a1-3)[GlcNAc(b1-4)][GlcNAc(b1-2)[GlcNAc(b1-6)]Man(a1-6)]Man(b1-4)GlcNAc(b1-4)[Fuc(a1-6)]GlcNAc
# In short: as §1
# [14] = molecular target: GlcNAc(b1-2)[GlcNAc(b1-6)]Man(a1-6)[GlcNAc(b1-2)Man(a1-3)]Man(b1-4)GlcNAc(b1-4)GlcNAc
# In short: as §1
# [15] = molecular target: GlcNAc(b1-2)[GlcNAc(b1-6)]Man(a1-6)[GlcNAc(b1-2)Man(a1-3)]Man(b1-4)GlcNAc(b1-4)[Fuc(a1-6)]GlcNAc
# In short: as §1
# [16] = molecular target: GlcNAc(b1-2)[GlcNAc(b1-6)]Man(a1-6)[GlcNAc(b1-2)Man(a1-3)][GlcNAc(b1-4)]Man(b1-4)GlcNAc(b1-4)GlcNAc
# In short: as §1
# GlcNAc(b1-3)Gal = molecular target: GlcNAc(b1-3)Gal
# In short: as §1
# [17] = molecular target: GlcNAc(b1-3)Gal(b1-3)GalNAc
# In short: as §1
# GlcNAc(b1-3)Gal(b1-4)Glc = molecular target: GlcNAc(b1-3)Gal(b1-4)Glc
# In short: as §1
# [18] = molecular target: GlcNAc(b1-3)Gal(b1-4)GlcNAc
# In short: as §1
# [19] = molecular target: GlcNAc(b1-3)Gal(b1-4)GlcNAc(b1-3)Gal(b1-4)GlcNAc
# In short: as §1
# GlcNAc(b1-3)GalNAc = molecular target: GlcNAc(b1-3)GalNAc
# In short: as §1
# GlcNAc(b1-3)Man = molecular target: GlcNAc(b1-3)Man
# In short: as §1
# [20] = molecular target: GlcNAc(b1-3)[GlcNAc(b1-4)][GlcNAc(b1-6)]GlcNAc
# In short: as §1
# [21] = molecular target: GlcNAc(b1-3)[GlcNAc(b1-6)]Gal(b1-4)GlcNAc
# In short: as §1
# [22] = molecular target: GlcNAc(b1-3)[GlcNAc(b1-6)]GalNAc
# In short: as §1
# [23] = molecular target: GlcNAc(b1-4)Gal(b1-4)GlcNAc
# In short: as §1
# GlcNAc(b1-4)GlcNAc = molecular target: GlcNAc(b1-4)GlcNAc
# In short: as §1
# [24] = molecular target: GlcNAc(b1-4)GlcNAc(b1-4)GlcNAc
# In short: as §1
# [25] = molecular target: GlcNAc(b1-4)GlcNAc(b1-4)GlcNAc(b1-4)GlcNAc(b1-4)GlcNAc
# In short: as §1
# [26] = molecular target: GlcNAc(b1-4)GlcNAc(b1-4)GlcNAc(b1-4)GlcNAc(b1-4)GlcNAc(b1-4)GlcNAc
# In short: as §1
# [27] = molecular target: GlcNAc(b1-4)[GlcNAc(b1-6)]GalNAc
# In short: as §1
# [28] = molecular target: GlcNAc(b1-6)Gal(b1-4)GlcNAc
# In short: as §1
# GlcNAc(b1-6)GalNAc = molecular target: GlcNAc(b1-6)GalNAc
# In short: as §1
# GlcNAc3Prop(b1-4)GlcNAc = molecular target: GlcNAc3Prop(b1-4)GlcNAc
# In short: as §1
# [29] = molecular target: GlcNAc6S(b1-3)Gal(b1-4)GlcNAc
# In short: as §1
# Kdn(a2-3)Gal(b1-3)GalNAc = molecular target: Kdn(a2-3)Gal(b1-3)GalNAc
# In short: as §1
binder,measurement,setting,value
"Gal 4 (Homo sapiens), Q8K419 (protein) MAYVPAPGYQPTYNPTLPYKRPIPGGLSVGMSVYIQGMAKENMRRFHVNFAVGQDDGADVAFHFNPRFDGWDKVVFNTMQSGQWGKEEKKKSMPFQKGKHFELVFMVMPEHYKVVVNGNSFYEYGHRLPVQMVTHLQVDGDLELQSINFLGGQPAAAPYPGAMTIPAYPAGSPGYNPPQMNTLPVMTGPPVFNPRVPYVGALQGGLTVRRTIIIKGYVLPTARNFVINFKVGSSGDIALHLNPRIGDSVVRNSFMNGSWGAEERKVAYNPFGPGQFFDLSIRCGMDRFKVFANGQHLFDFSHRFQAFQMVDTLEINGDITLSYVQI",glycan array binding signal (z-score),[1],0.909
same,glycan array binding signal (z-score),[2],-0.046
same,glycan array binding signal (z-score),[3],-0.015
same,glycan array binding signal (z-score),[4],-0.165
same,glycan array binding signal (z-score),[5],-0.201
same,glycan array binding signal (z-score),[6],-0.175
same,glycan array binding signal (z-score),[7],-0.206
same,glycan array binding signal (z-score),[8],-0.193
same,glycan array binding signal (z-score),[9],-0.204
same,glycan array binding signal (z-score),[10],-0.2
same,glycan array binding signal (z-score),[11],-0.195
same,glycan array binding signal (z-score),[12],-0.213
same,glycan array binding signal (z-score),[13],-0.217
same,glycan array binding signal (z-score),[14],-0.201
same,glycan array binding signal (z-score),[15],-0.196
same,glycan array binding signal (z-score),[16],-0.197
same,glycan array binding signal (z-score),GlcNAc(b1-3)Gal,-0.199
same,glycan array binding signal (z-score),[17],-0.004
same,glycan array binding signal (z-score),GlcNAc(b1-3)Gal(b1-4)Glc,0.292
same,glycan array binding signal (z-score),[18],-0.118
same,glycan array binding signal (z-score),[19],-0.105
same,glycan array binding signal (z-score),GlcNAc(b1-3)GalNAc,-0.206
same,glycan array binding signal (z-score),GlcNAc(b1-3)Man,-0.204
same,glycan array binding signal (z-score),[20],-0.185
same,glycan array binding signal (z-score),[21],-0.209
same,glycan array binding signal (z-score),[22],-0.2
same,glycan array binding signal (z-score),[23],-0.206
same,glycan array binding signal (z-score),GlcNAc(b1-4)GlcNAc,-0.202
same,glycan array binding signal (z-score),[24],-0.205
same,glycan array binding signal (z-score),[25],-0.208
same,glycan array binding signal (z-score),[26],-0.206
same,glycan array binding signal (z-score),[27],-0.202
same,glycan array binding signal (z-score),[28],-0.209
same,glycan array binding signal (z-score),GlcNAc(b1-6)GalNAc,-0.204
same,glycan array binding signal (z-score),GlcNAc3Prop(b1-4)GlcNAc,-0.2
same,glycan array binding signal (z-score),[29],-0.232
same,glycan array binding signal (z-score),Kdn(a2-3)Gal(b1-3)GalNAc,-0.199
